Assay results: ChEMBL document CHEMBL4888484, “Replenishing the malaria drug discovery pipeline: Screening and hit evaluation of the MMV Hit Generation Library 1 (HGL1) against asexual blood stage Plasmodium falciparum ,using a nano luciferase reporter read-out” (2022)
About 540 (0.36%) of roughly 150,000 compounds showed an effect of 50% or more. This is one part of the list.

tested on: Plasmodium falciparum; assay: Primary screen in NF54 nanoGlo assay, in single point, at 2uM, 72h; a lower Z score goes with more inhibition; type: functional, Erythrocyte; details: timepoint 72 hour

Row | Compound | % Inhibition [%] | Z score
1 | COc1ccc(C2CC(=O)N(c3ccc4c(c3)OCCO4)C(=O)C2)cc1OC | 1 | -0.13
2 | CC1OCCC12CN(C(=O)C(C)(O)C(C)C)CCO2 (stereo unspecified) | -9 | 1.76
3 | C#CCCC1(CCC(=O)N2CC(C)OC3(CCOC3)C2)N=N1 (stereo unspecified) | 0 | 0.01
4 | O=C(c1cnccn1)N(Cc1ccsc1)CC(F)(F)F | 0 | -0.02
5 | COc1ccccc1OCCn1cnc2c1CCNC21CCOCC1 | -4 | 0.85
6 | CC(=O)N[C@@H](Cc1c[nH]cn1)c1nc(C)nn1-c1ccc2c(c1)CCC2 | -15 | 1.76
7 | CC1CCc2c(F)cccc2C1NC(=O)C(=O)Nc1ccon1 (stereo unspecified) | 0 | 0.03
8 | O=S(=O)(c1cc(F)ccc1Cl)N1CC[C@H](c2ncccn2)C1 | -1 | 0.13
9 | Cc1c(C(=O)N2C[C@@H]3CC[C@H]2CN(CC(=O)N(C)C)C3)[nH]c2c(F)cccc12 | -12 | 2.12
10 | Cc1cc(C)n2cc(CNC(=O)Cc3nc4nc(C)cc(O)n4n3)nc2c1 | -4 | 0.62
11 | Nc1nonc1-c1noc(-c2cc(Br)ccc2OCc2ccccc2Cl)n1 | 6 | -0.76
12 | COc1ccc(N2CCN(C(=O)CN3C(=O)C4CC=CCC4C3=O)CC2)cc1 (stereo unspecified) | -11 | 1.78
13 | O=C(N1CCCCCC1)N1CCN(S(=O)(=O)c2ccccc2)CC1 | 1 | -0.16
14 | C[C@H](OC(=O)c1cnc2c(c1)ncn2C)c1nccs1 | -12 | 1.2
15 | CCOc1cc(CNC(=O)N2CCCN(c3ccnc(C)c3)CC2)ccc1OC | -6 | 0.83
16 | CC(=O)N[C@H]1[C@H](NC(=O)c2sc(C)nc2C)[C@@H]2CCO[C@@H]21 | 6 | -1.13
17 | Cc1ccc(N2CC[C@H]3[C@H](CCC(=O)N3CCCn3ccnc3)C2)nn1 | -11 | 1.06
18 | CC(C)CN1C[C@@H](NCc2ccc(N(C)C)cc2)C[C@H]1C(=O)NCCc1ccccc1F | -1 | 0.11
19 | CCCCc1ccc(NC(=O)c2coc(NC(=O)c3cc(C)on3)n2)cc1 | 5 | -0.67
20 | CN(C(=O)CNC(=O)c1c(Cl)cnn1C)C1CCCCC1 | -6 | 0.82
21 | CC1CC1c1ccc(CN(C)Cc2cccnc2)o1 (stereo unspecified) | -4 | 0.4

Row | Compound | % Inhibition [%] | Z score
22 | COc1ccc(/C=C\c2onc(C)c2NC(C)=O)cc1S(=O)(=O)NC1CCCCCCC1 | 4 | -0.7
23 | CC(NCCCOC1CCOC1)c1cc2ccccc2o1 (stereo unspecified) | -12 | 1.06
24 | CC(C)n1cnnc1CN1CCC2(CCC(=O)N(CCc3ccccc3)C2)CC1 | 0 | 0.04
25 | Fc1cc(CNCCC(F)(F)F)ccc1OC(F)F | -15 | 1.25
26 | COc1cccc(C(=O)NCc2cccnc2-c2ccc(C)cc2)c1 | -7 | 0.97
27 | O=C(c1cccnc1)N1CC[C@H](c2nnc(Cc3ccccc3)o2)C1 | 1 | -0.17
28 | CCN=C(NCc1noc(C)n1)N1CC=C(c2ccccc2)CC1 | 14 | -1.53
29 | COc1cccc(CNC(=O)[C@H](C)NS(=O)(=O)c2ccccc2C(F)(F)F)c1 | -2 | 0.18
30 | COc1ccc(-c2cccc3c2CCN(C(=O)C(C)C)[C@@H]3C)cc1 | 1 | -0.13
31 | Oc1cccc(CN2CCCC23CCN(c2cnc4ccccc4n2)CC3)c1 | -4 | 0.47
32 | C#C[C@H](C)NS(=O)(=O)CC1CCCCC1 | -8 | 1.01
33 | O=C(CC[C@@H]1NC(=O)NC1=O)NCCn1cc(Cl)cn1 | 2 | -0.15
34 | CN(c1ncnc2ccsc12)[C@H]1CCN(CC(F)(F)F)C1=O | 3 | -0.58
35 | Cc1cc(NC(=O)[C@H](C)N(C)Cc2ccc3c(c2)OCO3)on1 | -43 | 5.01
36 | Cc1cc(C(=O)N2CCc3ccc(Br)cc32)on1 | -14 | 2.65
37 | O=C(c1c[nH]c2ccccc12)N1CC[C@H](c2nc(-c3ccccc3)no2)C1 | 3 | -0.4
38 | C[C@](NC(=O)CCc1ccco1)(C(N)=O)c1cccc(Cl)c1 | -8 | 0.85
39 | O=C1C[C@@H](C(=O)N2CC(Cc3ccoc3)C2)NC(=O)N1 | -12 | 1.39
40 | CC(C)c1cc(CN[C@@H](C)c2cc(Cl)cc(Cl)c2)on1 | -4 | 0.61
41 | COc1cc(NC(=O)Cn2c(=O)n(Cc3cccc(Cl)c3)c(=O)c3ccccc32)cc(OC)c1 | 9 | -1.06
42 | CCc1cnccc1C(=O)N(CC1CC1)CC(F)(F)F | -3 | 0.39

Row | Compound | % Inhibition [%] | Z score
43 | CC[C@@H](CNC(=O)Nc1ncn(CC)n1)N1CCOCC1 | -2 | 0.31
44 | Cc1nc(O)c2nnn(Cc3ccccc3Cl)c2n1 | -8 | 0.92
45 | CS(=O)(=O)c1ccc(CN2C[C@@H]3C[C@H]2C(=O)Nc2ccccc2O3)cc1 | -17 | 2.6
46 | O=S(=O)(c1cc(Cl)cc(Cl)c1)N1CCOC[C@H]1c1nc[nH]n1 | -15 | 1.38
47 | Cc1cccnc1C(NC(C)C(=O)NC1(C#N)CCCCC1)C(C)C (stereo unspecified) | -3 | 0.54
48 | O=S(=O)(c1ccccc1F)N1CC(O)(c2cnn[nH]2)C1 | -4 | 0.84
49 | CCCCOc1ccc(-c2ccc(C)cc2)cc1[C@H]1Nc2ccccc2C(=O)N1c1ccccc1 | 39 | -5.04
50 | O=S(=O)(Nc1ncccc1Cl)c1cnc(-c2ccccc2)nc1 | -6 | 0.71
51 | O=C(CCCC(=O)c1ccccc1)NCc1ccc(C2CC2)nc1 | 10 | -1.33
52 | COCC(=O)NC1CN(C(=O)c2cc(C(C)C)on2)C1 | -10 | 0.84
53 | CCc1nc([C@H](C)NC(=O)Nc2nc(COC)cs2)cs1 | -11 | 1.2
54 | O=S1(=O)CCN(CCCNCc2cc(Cl)ccc2F)CC1 | 4 | -0.51
55 | COc1cc(OC)cc(OCc2nnc(C)n2C2CC2)c1 | 3 | -0.32
56 | CC(C)(C)c1ccc(COC(=O)c2ccc(Cl)c(S(=O)(=O)N3CCCCCC3)c2)cc1 | 2 | -0.3
57 | O=C(NC1CCCCC1)c1ccc(Nc2ncc(-c3cccc(F)c3)cn2)cc1 | -9 | 1.43
58 | c1cc([C@@H]2CN(Cc3noc(C4CC4)n3)CCO2)cs1 | 35 | -5.12
59 | C[C@H](C(=O)N(C)CCN(C)c1nccc(Oc2ccccc2)n1)c1ccccc1 | 16 | -2.33
60 | Cc1ccc2c(c1)CN(Cc1n[nH]cc1C)CCO2 | 8 | -0.79
61 | Cn1cc(-c2nccnc2CNC(=O)Cn2cnc3ccccc3c2=O)cn1 | -9 | 1.04
62 | CC(=O)c1c(C)nn(CCc2ncnn2Cc2ccc3c(c2)OCO3)c1C | -2 | 0.2
63 | CN1CCO[C@@H](CN(CC2CC2)C(=O)c2cnn(C)c2)C1 | -2 | 0.4

Row | Compound | % Inhibition [%] | Z score
64 | CC(=O)Nc1ccc(O)c(C(F)(F)F)c1 | 2 | -0.19
65 | COc1ccc(C(=O)N2CCC[C@H](n3cc(-c4nc(C5CC5)no4)nn3)C2)cc1F | -2 | 0.31
66 | CCN(C)C(=O)c1cccc(Nc2c(Oc3ccc(F)cc3)cnn(-c3ccc(F)cc3)c2=O)c1 | -4 | 0.55
67 | Cc1ccc(NC(=O)c2c(-c3ccccc3)n(Cc3cccs3)c(=O)n2CCN2CCOCC2)cc1C | -12 | 1.34
68 | CCOc1ccc(-c2[nH]c3[nH]c(=O)[nH]c(=O)c3c2-c2ccc(OC)cc2)cc1OC | 4 | -0.59
69 | CCn1c(-c2cn(CCOC(C)C)nn2)nc2ccccc21 | -21 | 2.08
70 | OC[C@H]1C=C[C@@H](NC2CCCc3ccc(F)cc32)C1 (stereo partly specified) | 7 | -0.83
71 | COc1cc(Cl)c(C)cc1NC(=O)[C@H]1CCCN(c2nc3cccnc3s2)C1 | -15 | 1.31
72 | Cc1noc(C)c1S(=O)(=O)N[C@H](c1cnn(C)c1)C1CC(O)C1 (stereo partly specified) | -8 | 1.53
73 | O=C1CCCN1c1cccc(C(=O)N2CCCn3nnnc32)c1 | -3 | 0.38
74 | N#Cc1ccc(CNC(=O)NCc2ccsc2)c(F)c1 | -1 | 0.12
75 | CCc1ccc(CN2CCC[C@H](c3ncc[nH]3)C2)nc1 | 65 | -9.74
76 | O=C(NCCc1ccccc1)C(=O)NCC1(O)CCOCC1 | 5 | -0.64
77 | Cc1ncncc1-c1noc(C(C)(C)Oc2ccc(C(F)(F)F)cc2)n1 | -2 | 0.34
78 | O=C(N[C@H]1CCc2ccccc21)c1cccc(-n2cnnn2)c1 | -12 | 1.63
79 | CCOc1ccccc1-c1cc(C(=O)NCc2ccccc2)c2c(-c3ccccc3)[nH]nc2n1 | -23 | 3.07
80 | Cn1cc(-c2nc(-c3ccccc3)c(-c3ccc(-c4ccccc4)cc3)[nH]2)c2ccccc21 | 5 | -0.81
81 | Cc1nc[nH]c1CN1C[C@H]2CC[C@@H](C1)N(Cc1cc(CC(C)C)[nH]n1)C2 | -5 | 0.84
82 | C[C@H]1C(=O)N2C[C@@H](N(C)C)C[C@H]2CN1C(=O)c1ccc2ncccc2c1 | -1 | 0.08
83 | O=C(Nc1ccc(Cc2nnn[nH]2)cc1)c1ccc(Cl)cn1 | -7 | 0.73
